Binding signal data for 20 molecules are collected here from publication PMC9911399, “Two distinct binding modes provide the RNA-binding protein RbFox with extraordinary sequence specificity”.

The labels stand for the following.
T1: RBFOX1 RRM RbFoxmut (Fox-RRM*) (Homo sapiens, UniProt Q9NWB1 109-208, R118D;E147R;N151S;E152T)
T1 sequence: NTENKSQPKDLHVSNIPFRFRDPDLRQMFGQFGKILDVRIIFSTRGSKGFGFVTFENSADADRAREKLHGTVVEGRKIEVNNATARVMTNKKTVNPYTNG

B1: UAUUUAG (DNA:RNA)
RNA: GGGAGACCGGAAUUCAGAUUGUCCUAUUUAGUUAAAUCCCGUCGUAGCCACCA
DNA 1: CAATCTGAATTCCGGTCTCCC
DNA 2: TGGTGGCTACGACGGGATT
B2: AGAGCCG (DNA:RNA)
RNA: B1 RNA with U25A, A26G, U27A, U28G, U29C, A30C
DNA 1: CAATCTGAATTCCGGTCTCCC
DNA 2: TGGTGGCTACGACGGGATT
B3: AAUGUGC (DNA:RNA)
RNA: B1 RNA with U25A, U28G, A30G, G31C
DNA 1: CAATCTGAATTCCGGTCTCCC
DNA 2: TGGTGGCTACGACGGGATT
B4: CGCUUAG (DNA:RNA)
RNA: B1 RNA with U25C, A26G, U27C
DNA 1: CAATCTGAATTCCGGTCTCCC
DNA 2: TGGTGGCTACGACGGGATT
B5: CUAGUGU (DNA:RNA)
RNA: B1 RNA with U25C, A26U, U27A, U28G, A30G, G31U
DNA 1: CAATCTGAATTCCGGTCTCCC
DNA 2: TGGTGGCTACGACGGGATT
B6: CACGGCU (DNA:RNA)
RNA: B1 RNA with U25C, U27C, U28G, U29G, A30C, G31U
DNA 1: CAATCTGAATTCCGGTCTCCC
DNA 2: TGGTGGCTACGACGGGATT
B7: AGGGUCG (DNA:RNA)
RNA: B1 RNA with U25A, A26G, U27G, U28G, A30C
DNA 1: CAATCTGAATTCCGGTCTCCC
DNA 2: TGGTGGCTACGACGGGATT
B8: UUGAUCG (DNA:RNA)
RNA: B1 RNA with A26U, U27G, U28A, A30C
DNA 1: CAATCTGAATTCCGGTCTCCC
DNA 2: TGGTGGCTACGACGGGATT
B9: GAGUCUA (DNA:RNA)
RNA: B1 RNA with U25G, U27G, U29C, A30U, G31A
DNA 1: CAATCTGAATTCCGGTCTCCC
DNA 2: TGGTGGCTACGACGGGATT
B10: CCGUACG (DNA:RNA)
RNA: B1 RNA with U25C, A26C, U27G, U29A, A30C
DNA 1: CAATCTGAATTCCGGTCTCCC
DNA 2: TGGTGGCTACGACGGGATT
B11: CCAGAGG (DNA:RNA)
RNA: B1 RNA with U25C, A26C, U27A, U28G, U29A, A30G
DNA 1: CAATCTGAATTCCGGTCTCCC
DNA 2: TGGTGGCTACGACGGGATT
B12: UCCCGAU (DNA:RNA)
RNA: B1 RNA with A26C, U27C, U28C, U29G, G31U
DNA 1: CAATCTGAATTCCGGTCTCCC
DNA 2: TGGTGGCTACGACGGGATT
B13: CUGGGAC (DNA:RNA)
RNA: B1 RNA with U25C, A26U, U27G, U28G, U29G, G31C
DNA 1: CAATCTGAATTCCGGTCTCCC
DNA 2: TGGTGGCTACGACGGGATT
B14: AUUGUAG (DNA:RNA)
RNA: B1 RNA with U25A, A26U, U28G
DNA 1: CAATCTGAATTCCGGTCTCCC
DNA 2: TGGTGGCTACGACGGGATT
B15: GUACCCU (DNA:RNA)
RNA: GGGAGACCGGAAUUCAGAUUGUCCGUACCCUUUAAAUCCCGUCGUAGCCACCA
DNA 1: CAATCTGAATTCCGGTCTCCC
DNA 2: TGGTGGCTACGACGGGATT
B16: UUCAGCU (DNA:RNA)
RNA: B15 RNA with G25U, A27C, C28A, C29G
DNA 1: CAATCTGAATTCCGGTCTCCC
DNA 2: TGGTGGCTACGACGGGATT
B17: UCUACGC (DNA:RNA)
RNA: B1 RNA with A26C, U28A, U29C, A30G, G31C
DNA 1: CAATCTGAATTCCGGTCTCCC
DNA 2: TGGTGGCTACGACGGGATT
B18: AAAGAUC (DNA:RNA)
RNA: B15 RNA with G25A, U26A, C28G, C29A, C30U, U31C
DNA 1: CAATCTGAATTCCGGTCTCCC
DNA 2: TGGTGGCTACGACGGGATT
B19: GUGCGCG (DNA:RNA)
RNA: B15 RNA with A27G, C29G, U31G
DNA 1: CAATCTGAATTCCGGTCTCCC
DNA 2: TGGTGGCTACGACGGGATT
B20: GACAAAG (DNA:RNA)
RNA: B1 RNA with U25G, U27C, U28A, U29A
DNA 1: CAATCTGAATTCCGGTCTCCC
DNA 2: TGGTGGCTACGACGGGATT

Changes are numbered by the printed parent chain; changes in the protein carry UniProt numbers. Some of the results follow.

This test deals with T1, RBFOX1 RRM RbFoxmut (Fox-RRM*). The experiment in a line: EMSA; HiTS-Eq, 1 nM pool, 10 min; buffer printed only for the single-RNA assays: 10 mM Tris pH 7.5, 150 mM NaCl, 3.4 mM EDTA, 0.001% NP-40, 30 C. The conditions noted are these: tags: His6 N-terminal (pET28a); label: 5' 32P. A digest of the protocol:
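Purified RbFox RRM, wild type or mutant, was incubated for 10 min in 50 µL with 1 nM of a 5′-radiolabelled RNA pool carrying 7 randomized nucleotides, whose flanks were annealed to DNA oligonucleotides, over a series of increasing protein concentrations. Unbound RNA was resolved on 8% native PAGE, cut out, reverse-transcribed, barcoded by PCR and sequenced on an Illumina HiSeq 2500. Relative association constants were derived from changes in read counts for each RNA species versus the control reaction and normalised to the cognate motif.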
(In general: In EMSA bound probe runs differently from free probe, usually more slowly.)
As for B1, the binding signal is 0.122 KA relative to UGCAUGU.
B2: the binding signal was 0.11 KA relative to UGCAUGU.
Consider B3, for which the binding signal is 0.13 KA relative to UGCAUGU.
With B4 the figure was 0.129 KA relative to UGCAUGU.
Next, B5: 0.168 KA relative to UGCAUGU.
Next, B6: 0.0716 KA relative to UGCAUGU; B7: 0.241 KA relative to UGCAUGU.
B8: the binding signal was 0.24 KA relative to UGCAUGU.
On to B9, for which the binding signal is 0.0954 KA relative to UGCAUGU.
As to B10, the binding signal was 0.169 KA relative to UGCAUGU.
Next, B11: 0.0884 KA relative to UGCAUGU; B12: 0.0601 KA relative to UGCAUGU; B13: 0.0652 KA relative to UGCAUGU.
Regarding B14, the binding signal was 0.23 KA relative to UGCAUGU.
Consider B15, for which the binding signal was 0.0581 KA relative to UGCAUGU.
Regarding B16, the binding signal is 0.104 KA relative to UGCAUGU.
Next, B17: 0.102 KA relative to UGCAUGU; B18: 0.0686 KA relative to UGCAUGU.
For B19, the binding signal was 0.194 KA relative to UGCAUGU.
As to B20, the binding signal was 0.0552 KA relative to UGCAUGU.
